# Test results: the supplement of paper PMC4604168 (melanoma cell lines)
# This is one part of the list. Most values come without repeats; read them as rough.
# Tested on: WM3526
# Test: cell count relative to DMSO control; melanoma cells; higher = more viable cells
# Details: library dose: low library concentration; 72 h
# 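Also: cell number obtained by counting DAPI-stained nuclei in high-throughput microscope images with image analysis software, screen run in 1,536-well plates.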
row,SMILES,cell count [%]
1,"CN(c1ncccc1CNc1nc(Nc2ccc3c(c2)CC(=O)N3)ncc1C(F)(F)F)S(C)(=O)=O + O=C1NC(=O)/C(=C/c2ccc(-c3ccc(F)cc3O)o2)S1 [AS252424] (first compound 0.08 µM, partner dose 1 µM)",89.7
2,"CN(c1ncccc1CNc1nc(Nc2ccc3c(c2)CC(=O)N3)ncc1C(F)(F)F)S(C)(=O)=O + Oc1cc(-c2nc(-c3ccccc3)[nH]c2-c2ccncc2)ccc1Cl [L779450] (first compound 0.08 µM, partner dose 0.2 µM)",79.9
3,"C=C(c1ccc(C(=O)O)cc1)c1cc2c(cc1C)C(C)(C)CCC2(C)C [Bexarotene] + Cn1c(Nc2ccc(C(F)(F)F)cc2)nc2cc(Oc3ccnc(-c4ncc(C(F)(F)F)[nH]4)c3)ccc21 [CHIR265] (first compound 2 µM, partner dose 0.08 µM)",82.8
4,"CCCS(=O)(=O)Nc1ccc(F)c(C(=O)c2c[nH]c3ncc(Cl)cc23)c1F + COc1ccc(Cl)c(Nc2nc3ccccc3nc2NS(=O)(=O)c2cccc(NC(=O)C(C)(C)N)c2)c1 [XL147] (first compound 0.08 µM, partner dose 0.8 µM)",63.8
5,"CCCS(=O)(=O)Nc1ccc(F)c(C(=O)c2c[nH]c3ncc(Cl)cc23)c1F + CN(C)S(=O)(=O)c1ccc2c(c1)/C(=C/c1cc3c([nH]1)CCCC3)C(=O)N2 [SU6656] (first compound 0.08 µM, partner dose 0.4 µM)",66.9
6,"C=C(c1ccc(C(=O)O)cc1)c1cc2c(cc1C)C(C)(C)CCC2(C)C [Bexarotene] + COc1cc(Nc2ncc(F)c(Nc3ccc4c(n3)NC(=O)C(C)(C)O4)n2)cc(OC)c1OC [Tamatinib] (first compound 2 µM, partner dose 0.4 µM)",71.3
7,"CS(=O)(=O)c1ccc(C(=O)Nc2ccc(Cl)c(-c3ccccn3)c2)c(Cl)c1 [vismodegib] + CC(=O)O[C@@]12CO[C@@H]1C[C@H](O)[C@@]1(C)C(=O)[C@H](O)C3=C(C)[C@@H](OC(=O)[C@H](O)[C@@H](NC(=O)OC(C)(C)C)c4ccccc4)C[C@@](O)([C@@H](OC(=O)c4ccccc4)[C@H]21)C3(C)C [Docetaxel] (first compound 1 µM, partner dose 0.0001 µM)",41.7

# Tested on: WM3619
# Test: as above
# Details: library dose: low library concentration; 72 h
row,SMILES,cell count [%]
1,"CCCS(=O)(=O)Nc1ccc(F)c(C(=O)c2c[nH]c3ncc(Cl)cc23)c1F + N#Cc1c(O)c2c(-c3ccc(-c4ccccc4O)cc3)csc2[nH]c1=O [A769662] (first compound 0.08 µM, partner dose 2 µM)",107
2,"CN(c1ncccc1CNc1nc(Nc2ccc3c(c2)CC(=O)N3)ncc1C(F)(F)F)S(C)(=O)=O + CNC(=O)c1cc(Oc2ccc(NC(=O)Nc3ccc(Cl)c(C(F)(F)F)c3)cc2)ccn1 [sorafenib] (first compound 0.08 µM, partner dose 0.4 µM)",88.4
3,"CS(=O)(=O)c1ccc(C(=O)Nc2ccc(Cl)c(-c3ccccn3)c2)c(Cl)c1 [vismodegib] + COc1ccc2c(c1)CCC1C2CCC2(C)C(NCCCCCCN3C(=O)C=CC3=O)CCC12 [U73122] (first compound 1 µM, partner dose 0.4 µM)",113
4,"CS(=O)(=O)c1ccc(C(=O)Nc2ccc(Cl)c(-c3ccccn3)c2)c(Cl)c1 [vismodegib] + NC(=O)Nc1cc(-c2cccc(F)c2)sc1C(=O)N[C@H]1CCCNC1 [AZD7762] (first compound 1 µM, partner dose 0.02 µM)",59.7
5,"NC1(c2ccc(-c3nc4ccn5c(=O)[nH]nc5c4cc3-c3ccccc3)cc2)CCC1 + COc1cc2c(Oc3ccc4[nH]c(C)cc4c3F)ncnc2cc1OCCCN1CCCC1 [cediranib] (first compound 0.4 µM, partner dose 0.4 µM)",104
6,"C=C(c1ccc(C(=O)O)cc1)c1cc2c(cc1C)C(C)(C)CCC2(C)C [Bexarotene] + COc1ccc(COc2ccc(Cc3cnc(N)nc3N)cc2OC)cc1 [GW2580] (first compound 2 µM, partner dose 1 µM)",86.5
7,"CS(=O)(=O)c1ccc(C(=O)Nc2ccc(Cl)c(-c3ccccn3)c2)c(Cl)c1 [vismodegib] + CC(=O)c1c(C)c2cnc(Nc3ccc(N4CCNCC4)cn3)nc2n(C2CCCC2)c1=O [palbociclib] (first compound 1 µM, partner dose 0.04 µM)",107
8,"CN(c1ncccc1CNc1nc(Nc2ccc3c(c2)CC(=O)N3)ncc1C(F)(F)F)S(C)(=O)=O + Nc1nc(F)nc2c1ncn2[C@@H]1O[C@H](CO)[C@@H](O)[C@@H]1O [fludarabine] (first compound 0.08 µM, partner dose 0.2 µM)",98
9,"CS(=O)(=O)c1ccc(C(=O)Nc2ccc(Cl)c(-c3ccccn3)c2)c(Cl)c1 [vismodegib] + COc1ccc(COc2ccc(Cc3cnc(N)nc3N)cc2OC)cc1 [GW2580] (first compound 1 µM, partner dose 1 µM)",132
10,"CN(c1ncccc1CNc1nc(Nc2ccc3c(c2)CC(=O)N3)ncc1C(F)(F)F)S(C)(=O)=O + O=S(=O)(c1ccccc1)N(CC(F)(F)F)c1ccc(C(O)(C(F)(F)F)C(F)(F)F)cc1 [T0901317] (first compound 0.08 µM, partner dose 1.4 µM)",98.6
11,"CCCS(=O)(=O)Nc1ccc(F)c(C(=O)c2c[nH]c3ncc(Cl)cc23)c1F + Cn1cc(/C=C2\C(=O)Nc3cccnc32)c2ccccc21 [GW441756] (first compound 0.08 µM, partner dose 0.4 µM)",85.9
12,"C=C(c1ccc(C(=O)O)cc1)c1cc2c(cc1C)C(C)(C)CCC2(C)C [Bexarotene] + Oc1nc(-c2ccc(C(F)(F)F)cc2)nc2c1CSCC2 [XAV939] (first compound 2 µM, partner dose 2 µM)",99.6
13,"CN(c1ncccc1CNc1nc(Nc2ccc3c(c2)CC(=O)N3)ncc1C(F)(F)F)S(C)(=O)=O + COc1cc2c(Oc3ccc4[nH]c(C)cc4c3F)ncnc2cc1OCCCN1CCCC1 [cediranib] (first compound 0.08 µM, partner dose 0.4 µM)",104
14,"CCCS(=O)(=O)Nc1ccc(F)c(C(=O)c2c[nH]c3ncc(Cl)cc23)c1F + COc1ccc(COc2ccc(Cc3cnc(N)nc3N)cc2OC)cc1 [GW2580] (first compound 0.08 µM, partner dose 1 µM)",86.5
15,"NC1(c2ccc(-c3nc4ccn5c(=O)[nH]nc5c4cc3-c3ccccc3)cc2)CCC1 + O=C(O)c1ccc2c(c1)nc(Nc1cccc(Cl)c1)c1ccncc12 [CX4945] (first compound 0.4 µM, partner dose 0.4 µM)",80.3
16,"CN(c1ncccc1CNc1nc(Nc2ccc3c(c2)CC(=O)N3)ncc1C(F)(F)F)S(C)(=O)=O + O=C(Nc1cccc(Cl)c1)Nc1ncc(CCNc2ncnc3ccsc23)s1 [SNS314] (first compound 0.08 µM, partner dose 0.0008 µM)",106
17,"CN(c1ncccc1CNc1nc(Nc2ccc3c(c2)CC(=O)N3)ncc1C(F)(F)F)S(C)(=O)=O + O=C(CCCCCCC(=O)Nc1ccccc1)NO [vorinostat] (first compound 0.08 µM, partner dose 0.08 µM)",98.9
18,"NC1(c2ccc(-c3nc4ccn5c(=O)[nH]nc5c4cc3-c3ccccc3)cc2)CCC1 + CS(=O)(=O)CCNCc1ccc(-c2ccc3ncnc(Nc4ccc(OCc5cccc(F)c5)c(Cl)c4)c3c2)o1 [lapatinib] (first compound 0.4 µM, partner dose 0.8 µM)",86.9
19,"C=C(c1ccc(C(=O)O)cc1)c1cc2c(cc1C)C(C)(C)CCC2(C)C [Bexarotene] + c1cc(-c2cnn3cc(-c4ccc(OCCN5CCCCC5)cc4)cnc23)ccn1 [Dorsomorphin] (first compound 2 µM, partner dose 0.4 µM)",105
20,"CN(c1ncccc1CNc1nc(Nc2ccc3c(c2)CC(=O)N3)ncc1C(F)(F)F)S(C)(=O)=O + CC(C)C[C@H](NC(=O)[C@H](Cc1ccccc1)NC(=O)c1cnccn1)B(O)O [Bortezomib] (first compound 0.08 µM, partner dose 0.001 µM)",21.1
21,"NC1(c2ccc(-c3nc4ccn5c(=O)[nH]nc5c4cc3-c3ccccc3)cc2)CCC1 + COc1cc(Nc2ncc(F)c(Nc3ccc4c(n3)NC(=O)C(C)(C)O4)n2)cc(OC)c1OC [Tamatinib] (first compound 0.4 µM, partner dose 0.4 µM)",83
22,"C=C(c1ccc(C(=O)O)cc1)c1cc2c(cc1C)C(C)(C)CCC2(C)C [Bexarotene] + OCc1c[nH]c2ccccc12 [Indole-3-carbinol] (first compound 2 µM, partner dose 0.8 µM)",94.3
23,"C=C(c1ccc(C(=O)O)cc1)c1cc2c(cc1C)C(C)(C)CCC2(C)C [Bexarotene] + N#Cc1c(O)c2c(-c3ccc(-c4ccccc4O)cc3)csc2[nH]c1=O [A769662] (first compound 2 µM, partner dose 2 µM)",92.2
24,"C=C(c1ccc(C(=O)O)cc1)c1cc2c(cc1C)C(C)(C)CCC2(C)C [Bexarotene] + CCc1ccc(CCOc2ccc(CC3SC(=O)NC3=O)cc2)nc1 [pioglitazone] (first compound 2 µM, partner dose 2 µM)",116
